# Data taken from publication PMC4336329 (PLoS ONE, 2015).
# About 2,200 (0.71%) of roughly 310,000 compounds showed an effect of 50% or more. Effects have a minus sign here. This is one part of the list.
# Molecular target: human ether-à-go-go-related gene (hERG) potassium channel (human, UniProt Q12809)
# Test: primary screen, population patch clamp on CHO cells stably expressing hERG
# human ether-à-go-go-related gene (hERG) potassium channel, sequence (Q12809 whole entry, looked up): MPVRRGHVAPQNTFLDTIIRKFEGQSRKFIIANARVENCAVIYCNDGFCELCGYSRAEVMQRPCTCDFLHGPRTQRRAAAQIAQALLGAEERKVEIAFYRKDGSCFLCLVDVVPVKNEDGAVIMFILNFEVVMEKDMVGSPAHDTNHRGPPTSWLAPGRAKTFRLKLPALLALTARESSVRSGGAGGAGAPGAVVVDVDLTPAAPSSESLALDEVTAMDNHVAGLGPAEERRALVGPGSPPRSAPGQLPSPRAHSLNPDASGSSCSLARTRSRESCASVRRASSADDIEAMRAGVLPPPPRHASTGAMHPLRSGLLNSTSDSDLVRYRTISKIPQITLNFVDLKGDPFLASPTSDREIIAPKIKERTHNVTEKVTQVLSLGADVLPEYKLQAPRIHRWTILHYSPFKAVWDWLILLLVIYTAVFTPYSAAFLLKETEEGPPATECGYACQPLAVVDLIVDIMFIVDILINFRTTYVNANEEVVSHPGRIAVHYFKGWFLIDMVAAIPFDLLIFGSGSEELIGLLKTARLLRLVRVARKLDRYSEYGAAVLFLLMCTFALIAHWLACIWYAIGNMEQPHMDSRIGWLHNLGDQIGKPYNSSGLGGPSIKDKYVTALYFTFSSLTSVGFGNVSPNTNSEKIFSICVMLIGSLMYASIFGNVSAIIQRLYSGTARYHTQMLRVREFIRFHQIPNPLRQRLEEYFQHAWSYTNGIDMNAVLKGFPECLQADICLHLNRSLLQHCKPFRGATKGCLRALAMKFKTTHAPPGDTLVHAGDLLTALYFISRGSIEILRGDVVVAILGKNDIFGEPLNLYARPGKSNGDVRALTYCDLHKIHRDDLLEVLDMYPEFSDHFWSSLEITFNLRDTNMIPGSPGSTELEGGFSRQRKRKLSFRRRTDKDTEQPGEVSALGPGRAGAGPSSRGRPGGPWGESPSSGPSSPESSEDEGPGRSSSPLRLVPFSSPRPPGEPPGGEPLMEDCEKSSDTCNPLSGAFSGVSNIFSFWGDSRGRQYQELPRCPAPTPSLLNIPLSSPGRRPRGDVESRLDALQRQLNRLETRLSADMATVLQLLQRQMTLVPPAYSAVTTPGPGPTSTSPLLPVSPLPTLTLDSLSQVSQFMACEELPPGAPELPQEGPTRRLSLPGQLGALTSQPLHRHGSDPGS
row,SMILES,"hERG current change (%, negative = inhibition) at 1uM [%]"
1,COc1cc(C(=S)N2CCOCC2)cc(OC)c1OC(=O)c1cc([N+](=O)[O-])cc([N+](=O)[O-])c1,13.3
2,CC(NC(=O)c1cccnc1)C(=O)[O-].[Na+] (stereo not shown),16.6
3,C=CCSc1nnc2c(n1)OC(c1ccccn1)N(C(C)=O)c1ccccc1-2 (stereo not shown),-2.32
4,c1ccc(-c2cn(CC3CCCCC3)nn2)cc1,11
5,Cc1ccc(NC(=O)CC2S/C(=N/c3nccs3)N(C)C2=O)c(C)c1 (stereo not shown),-1.65
6,O=C(NCc1cccs1)Nc1ccc2c(c1)OCO2,2.53
7,COc1ccc(/C=C/C(=O)C2CC2)cc1COc1c(C)cccc1C,6.77
8,Cc1sc2nc(COC(=O)c3ccc(Cl)c(N)c3)[nH]c(=O)c2c1C,7.02
9,Cc1cc(C)cc(N(CC(=O)NC2CCCCC2)C(=O)c2ccc(C)s2)c1,5.92
10,CC1(C(=O)O)CCC(C(=O)N2CCCCC2)C1(C)C (stereo not shown),12
11,CCOC(=O)N1CCN(CCC(=O)Nc2cc(OC)cc(OC)c2)CC1.Cl,6.92
12,CC1=C(C(=O)OCCBr)C(c2cccc3ccccc23)NC(=O)N1 (stereo not shown),12.9
13,CN(c1ccccc1)S(=O)(=O)c1cccc(NC(=O)CSc2nncs2)c1,-4.56
14,Cc1ccc([N+](=O)[O-])c(OCC(=O)OCC(=O)c2ccccc2)c1,10
15,CCOCCOC(=O)C1=C(C)NC(=O)NC1c1ccc2c(c1)OCO2 (stereo not shown),16
16,O=C(NCCOc1ccc2ccccc2c1)c1cncc(Br)c1,10.4
17,O=C(N/N=C/c1cccc(Br)c1)c1ccc(Br)cc1,5.11
18,Cc1cccc(NC(=O)CSc2nnc(CSc3nc(C)cc(C)n3)n2Cc2ccco2)c1,14.1
19,Cc1ccc2oc(C(=O)N(C)Cc3ccc(C)o3)c(C)c2c1,15.4
20,CNC(=S)N(C1=NCC(c2ccc([N+](=O)[O-])cc2)S1)c1ccccc1 (stereo not shown),-2.38
21,O=C(Cc1ccc(Br)cc1)Nc1ccccc1N1CCCC1,12.8
22,COC(=O)C1=C(c2cccc(OC)c2OC)C[C@@H]2CC[C@H]1N2C(=O)N1CCC(O)CC1,25.2

row,SMILES,"hERG current change (%, negative = inhibition) at 1uM [%]"
1,CCN1CCc2c(sc(NC(=O)c3ccc(S(=O)(=O)N4CCOCC4)cc3)c2C(N)=O)C1,7.87
2,NNc1nc2c(F)cc(F)cc2s1,19.6
3,C/C(=N/NC(=O)CNC(=O)c1ccncc1)c1ccc(Cl)cc1,3.5
4,COc1ccc(C(=O)NC(=S)NCc2ccco2)cc1Br,12.6
5,CCC(=O)Nc1ccc(C(=O)Nc2ccc(Br)cc2F)cc1,19.3
6,Cc1ccc(S(=O)(=O)N2CCOCC2)cc1NC(=O)CN(C)C1CCS(=O)(=O)C1 (stereo not shown),16.9
7,Cc1csc(NC(=O)CSc2nnc(-c3cccnc3)o2)n1,1.85
8,CCOC(=O)C(CC)Sc1nc(N)c(NC(=O)c2ccc(OC)c(OC)c2)c(=O)[nH]1 (stereo not shown),-6.35
9,COc1ccc(C(C)(C)C)cc1NC(=O)COC(=O)C(C)C,3.53
10,COc1cc(C(=O)NCC(=O)OCC(=O)c2cccc3ccccc23)cc(OC)c1OC,6.1
11,CCOC(=O)C[C@H]1c2cc(F)ccc2S(=O)(=O)N1c1ccccc1,13.1
12,CCCc1[nH]nc2c1C(Cc1ccccc1)C(C#N)=C(N)O2 (stereo not shown),7.37
13,COc1ccc(N2CCN(C(=O)NC3CC(=O)N(c4ccc(OC)cc4)C3)CC2)cc1 (stereo not shown),3.18
14,NS(=O)(=O)c1ccc(NC(=O)COC(=O)c2cn(-c3ccccc3)nc2-c2ccccc2)cc1,9.47
15,COc1cccc(C2C3=C(N=c4s/c(=C\c5ccccc5O)c(=O)n42)c2ccccc2CC3)c1OC (stereo not shown),11.3
16,O=C(NC(=S)Nc1nc(-c2ccccc2)cs1)c1ccco1,-6.49
17,CN(CC(=O)NC(=O)NCc1ccco1)Cc1nc2ccccc2c(=O)[nH]1,8.98
18,Cn1c(C(O)c2ccc(Br)cc2)nc(Cl)c1Cl (stereo not shown),1.19
19,CC1CCCN(S(=O)(=O)c2cc(Cl)ccc2Cl)C1 (stereo not shown),-2.83
20,CN1CCN(CC#Cc2ccccc2)CC1CCO (stereo not shown),12
21,O=C(NNC(=O)c1ccccc1[N+](=O)[O-])c1ccccc1[N+](=O)[O-],19.1
22,COc1cccc(/C=N/NC(N)=S)c1OCc1cccc(Cl)c1,8.77

row,SMILES,"hERG current change (%, negative = inhibition) at 1uM [%]"
1,CN(c1ccc(C(=O)NC2CCCC2)cc1)S(=O)(=O)c1ccccc1,6.22
2,O=C(CSc1nc(O)c(Cc2ccccc2F)c(=O)[nH]1)N1CCCCCC1,14
3,N#Cc1ccc(Cl)cc1NC(=O)COC(=O)c1cccc(S(=O)(=O)N2CCOCC2)c1,-0.432
4,COc1cc(NC(=O)c2ccc(CNc3c(N4CCOCC4)c(=O)c3=O)cc2)cc(OC)c1,0.103
5,CCCCn1c(=O)[nH]c(=O)c2c1nc(-c1cc(Cl)c(OC)c(OC)c1)n2C,13.9
6,COc1cc(C(=O)Nc2sc3c(c2C(=O)O)CCC3)cc(OC)c1OC,17.3
7,Cc1cccc(C(=O)NC(=S)NNC(=O)Cc2ccccc2)c1,7.19
8,O=C(NCCc1ccccn1)c1cc(C(=O)C2CCCCC2)c[nH]1,-7.13
9,O=C(OCC(=O)N1CCc2ccccc21)c1ccc[n+]([O-])c1,7.06
10,CCCCC(=O)NCCNc1nc2c(c(=O)n(C)c(=O)n2C)n1Cc1ccccc1,30.8
11,Cc1cc(-c2nnc(CCC(=O)NCc3cccc(C(F)(F)F)c3)o2)no1,11.8
12,Cc1ccc(C2C(C(N)=S)=C(N)OC3=C2C(=O)CC(C)(C)C3)cc1 (stereo not shown),3.19
13,CCN(CC)CCN1C(=O)C(=O)/C(=C(/O)c2cnn(-c3ccccc3)c2C)C1c1ccc(C)o1 (stereo not shown),1.78
14,CCc1nc2oc3ccccc3c(=O)c2c(=O)n1Cc1ccccc1,17.9
15,CC(C)Nc1oc(-c2cccc3ccccc23)nc1C#N,5.19
16,COc1ccc(C(=O)Nc2c(Cl)cc(Cl)cc2C(=O)N2CCC(C)CC2)cc1,6.41
17,Cc1cc(OCC(=O)N(C)Cc2ccccc2)ccc1Cl,13.4
18,CCCCOc1ccc(CSC(=N)N)cc1Cl.Cl,12.8
19,Cn1c(SCC(=O)Nc2ccccc2)nc2ccccc2c1=O,10.5
20,COc1cc(-c2nc3cnccn3c2Nc2ccc(C)cc2)ccc1O,4.26
21,CCOc1ccc(NC(=O)c2ccco2)cc1S(=O)(=O)N1CCCC1,-9.38
22,C/C(=N\NC(=O)c1cccc(S(=O)(=O)N2CCCCC2)c1)c1ccc(C)o1,2.52

row,SMILES,"hERG current change (%, negative = inhibition) at 1uM [%]"
1,O=C(OCn1nnc2ccccc2c1=O)c1ccc(S(=O)(=O)N2CCOCC2)cc1,13.1
2,CCCNC(=O)c1ccc(COc2ccc(C(C)(C)C)cc2)o1,12.4
3,COc1cccc2sc(Nc3nc(C)c(C(C)=O)s3)nc12,6.26
4,O=c1[nH]c(COc2ccc(Br)cc2Cl)nc2ccccc12,13.8
5,COC(=O)Nc1ccc(N2CCOCC2)c(S(=O)(=O)N2CCOCC2)c1,-7.28
6,COC(=O)c1c(-c2ccc(OC)cc2)sc2cc3c(cc12)OCO3,8.17
7,Cc1cc(C)c(OCCCCn2cnc3ccccc3c2=O)c(C)c1,8.04
8,CC(C)(C)n1nc2c(c1NC(=O)c1ccco1)CS(=O)C2 (stereo not shown),14
9,COc1ccccc1C(=O)N(Cc1ccc(Cl)cc1)C1CCS(=O)(=O)C1 (stereo not shown),9.72
10,CS(=O)(=O)c1ccc2nc(NC(=O)C3CC3)sc2c1,11.5
11,COc1ccc(N2CCN(C(=O)c3ccc(C)c(NC(=O)C4=C(C)OCCS4)c3)CC2)cc1,9.35
12,COc1ccc(C(=O)CCC(=O)NCCc2c[nH]c3ccccc23)cc1OC,14
13,CCCCn1c(-c2ccsc2)nc2c1c(=O)[nH]c(=O)n2CCC,-0.0342
14,CCOC(=O)N1CCN(C(=S)Nc2cccc(C)c2C)CC1,16.8
15,COc1ccc(C(=O)NCc2cc(C(C)C)no2)cc1OC1CCN(C(C)C)CC1,-11.3
16,Cc1cc(C)cc(N(CC(=O)NCCSCc2ccccc2)S(C)(=O)=O)c1,5.91
17,COc1ccc(S(=O)(=O)N(C)CC(=O)N2CCCC2)cc1,17.8
18,Cc1ccccc1CSc1nnc(C)c(=O)[nH]1,18.9
19,C/C(=N\NC(=O)c1nnn(-c2nonc2N)c1CSc1ccccc1)c1ccc2c(c1)OCO2,16.7
20,O=C(C1CC(=O)N(c2ccc3c(c2)OCCO3)C1)N1CCN(c2ccccc2)CC1 (stereo not shown),6.08
21,COc1ccc(C2C(C(=O)c3ccc(C)o3)=C(O)C(=O)N2c2cc(C)on2)cc1OC (stereo not shown),2.92
22,O=C1CC(c2ccc(F)cc2)C2=C(CCCC2=O)N1 (stereo not shown),1.55
